Measurements reported in the RNAGym collection of RNA variant scans (doi:10.7554/elife.90254).
Read counts are not given, so values of variants with three or more changes are uncertain.

B1: LINE1-mini (parent)
chain: GGCAGAGCUCAACACAGCGUGGCAAAGUGGCUGUGGCUAGACUGCC

Variants of: B1
Test: self-cleavage, relative activity (ratio to wild type); higher = more cleavage; in vitro, sequencing; the parent is a self-cleaving ribozyme
For GGCAGAGCUCCACACGACGUGGCAAAGUGGCUGUGGUUAGACUCCC [A11C A16G G17A C37U G44C], the self-cleavage was 0.02. For AGCAGAACGCAACACAGCGUGGCAAAGUGGCUGUGGCUAGACUGCC [G1A G7A U9G], the self-cleavage was 0.23. In the case of GGUAGAGCUCAACACAGCGUCGCAAAGUGGCUGAGGCUAGACUGCC [C3U G21C U34A], the self-cleavage is reported as 0.08. With GGCAGAGCUAAACACAGCGUGGCAAAGUGGCUGUGGUUUGACUGAC [C10A C37U A39U C45A] the self-cleavage was 0.01. GGCAGAGCUCAACACAGCGUGGCAAAGUAGCUGUAGCAAGGCUGCC [G29A G35A U38A A41G] showed a self-cleavage of 0.14. GGCACAGCUCAACACAGCGUGGCAAAGUGGCUGUCGCUAUACUGCC [G5C G35C G40U] showed a self-cleavage of 0.05. GGCAAAGCUCAACACAGCGUGGAAAAGUGGCUGUGGUUAGACUGCC [G5A C23A C37U] gave a self-cleavage of 0.05. Work on GGCAGAGCGCACCACAGCGUAGCAAAGUGCCUGUGGUUAGACUGCC [U9G A12C G21A G30C C37U] yielded a self-cleavage of 0.02. GGGAGAGCUCAACACAGGGUGGCAAAGAGGCUGUGGCUAGACUGCC [C3G C18G U28A] showed a self-cleavage of 0.34. Work on GGCAGAUCUCAGCACAGCGUGGCAAAGUGGCUGUUCCUAGAUUGCU [G7U A12G G35U G36C C42U C46U] yielded a self-cleavage of 0.14. Variant GGUAGAGCUCACCACAGCGUGGCAAAGUGGCUGUGGCUAGACUGCA [C3U A12C C46A] has a self-cleavage of 0.01. GGAAGAGCUAAACACAGGGUGGCAAAGUGGCUGUUGCGAGACUGCC [C3A C10A C18G G35U U38G] showed a self-cleavage of 0.1. Variant GGCAGAGCUCAAAACAGCCUGGCAAAGUGGGUGUGGCUAGACUACC [C13A G19C C31G G44A] has a self-cleavage of 0.03. GGCAGAGCACAACAUAGCGUGGCAAAGUGGCUGAGGCUAGACUGCC [U9A C15U U34A] showed a self-cleavage of 0.19. GGCAGAGCUCAACACAGCGUGGCAUGGUGGCUGUGGCUAGACUGCA [A25U A26G C46A] showed a self-cleavage of 0.45. With GGCAGAGCUCAACACAGCGUAGUAUGGUGGCUGUGGCUAGACUGCC [G21A C23U A25U A26G] the self-cleavage was 0.59. GGCAGAGCUCAGCACAGCGCGGCAAAGUGGCUGUGGCUAGACAUCC [A12G U20C U43A G44U] gave a self-cleavage of 0.01. GGCAGAGCUAAACUCAGAGUGGCAAAGCGCCUGAGGCUAGACUGCC [C10A A14U C18A U28C G30C U34A] showed a self-cleavage of 0.02. Work on UACAGAACUCAACACAGCGUGGCAAAGUCGCUGUGGCUAGACUGCC [G1U G2A G7A G29C] yielded a self-cleavage of 0.11. For GGAAGAGCUUAAUACAGCGUGGCAAAGUGGCUGUGGUUAGACUGCC [C3A C10U C13U C37U], the self-cleavage was 0.09. Work on GGCAGAGCUCAACACAGCUUGGCGAAGAGGCUGUGGCAAGACUGCC [G19U A24G U28A U38A] yielded a self-cleavage of 0.22. GUGAGAGCUCAACACAGGGUGGCAAAGUGGCUGUGGCUAGACUGCC [G2U C3G C18G] showed a self-cleavage of 0.14. GGCAGAGCUCAACACAGCGUGGCAAAGUGGCGUUGGCUGGGCUCCC [U32G G33U A39G A41G G44C] showed a self-cleavage of 0.05. With GGCAGAGCUCUACACAGCGUGGCAACGUGACUGUGGCUAGACUGCC [A11U A26C G30A] the self-cleavage was 0.13. With GGCGGAGCUCUACACAGGGUGGCAAAGGGGCUGUGGCUAGACUGCC [A4G A11U C18G U28G] the self-cleavage was 0.03. In the case of GGGAGGGCUCAACACAGAGUGGCAAAGUGGCUGUGGCUAGACUGCC [C3G A6G C18A], the self-cleavage is reported as 0.12. GUCAGAGUUCAACACAGCCUGGCCAAGUGGCUGUGGCUAGAGUGCC [G2U C8U G19C A24C C42G] gave a self-cleavage of 0.01. In the case of UGCAGAGCUCAAAACAGCCUGGCAAAGUGGCUGUGGCUAGACUGCC [G1U C13A G19C], the self-cleavage is reported as 0.01. For GGCAGAGCUCAACACAGCGUGGCAAAGUGGGUGUGACUAGACAGCC [C31G G36A U43A], the self-cleavage was 0.02. GGCAGAGCGCAACACAGCGUGGCAAAAUGCAUGUGGCUAGACUGCC [U9G G27A G30C C31A] showed a self-cleavage of 0.05. Variant GGCAGAGCUCAUCUCAGCGUGGCAAAGUUACUGGUGCUAGGCUGCC [A12U A14U G29U G30A U34G G35U A41G] has a self-cleavage of 0.02. Variant GGCAGAGCUCAACACAGCGUGUCAAAGUGUAGGUUGCUAGACUGCC [G22U G30U C31A U32G G35U] has a self-cleavage of 0.03. In the case of CGCUGAGCUCAAUACAGCGUGGCAAAGUGGCUGUGGCUAGACUGCC [G1C A4U C13U], the self-cleavage is reported as 0.06. GGCAGAGCUCAACACAUCGUGACAAAGUGGCUGUGGCUAUACUGCC [G17U G22A G40U] showed a self-cleavage of 0.06. For GGCACAGCUCAACACAGUGUGGCAAAGUGGCUGUGGCCAGACUGCC [G5C C18U U38C], the self-cleavage was 0.02. In the case of GGCAGAGUUCAACACAGCGUGGCAAAGUGGAUGUGGCUAGACAUUC [C8U C31A U43A G44U C45U], the self-cleavage is reported as 0.27. Variant GCCAGAGCUCAACACAGCAUGGCAAAGUGGCUGUGGCUAGACUGCG [G2C G19A C46G] has a self-cleavage of 0.58. GACAGAGCGCAACACAGCAUGGCUAAGUGGCUGUGGCUAGAAUGCC [G2A U9G G19A A24U C42A] showed a self-cleavage of 0.09. In the case of GCCAGAGCUCGCCACAGCGUGGCAAAGUGACUGUGGCUAGAUUGCC [G2C A11G A12C G30A C42U], the self-cleavage is reported as 0. Variant GGCAGAGCCCAACACAGCGUGGCAAAGAGGGUGCGGCUAGACUGCC [U9C U28A C31G U34C] has a self-cleavage of 0.02. With GGAAGAGCUCAACAUAGCGUGGCAAAGUGGCUAUGACUAGACUGCC [C3A C15U G33A G36A] the self-cleavage was 0.92. GCCACAGCUGAACACAGCGUGGCAAAGUGGCUGUGGCUAGACUGCA [G2C G5C C10G C46A] showed a self-cleavage of 0.02. GGCAGAGCUCAACACAGCGUAGCAAAGUGGCUGUCGCUAGCCUGCC [G21A G35C A41C] gave a self-cleavage of 0.02. For GGAAGAGAUCAACACAGCGUGGCAAAGUGGGUGUGGCUAGACUGCC [C3A C8A C31G], the self-cleavage was 0.22. Work on GCAAGAGCUCAACACAGCGUGGCAAAGUGGCUGUGGCCAGAUUGCC [G2C C3A U38C C42U] yielded a self-cleavage of 0.07. With GGCAAAGCUCGACACAGCGUGGCAAAGUGGCUGUGGCUAGACUUCC [G5A A11G G44U] the self-cleavage was 0.03. GGCAUAGGUCAACACAGCGUGGCAAAGUGUCUGUCGCUAGACUGCC [G5U C8G G30U G35C] gave a self-cleavage of 0.02. GAGAGAGCUCUAAACAGCGUGGCAAAGUGGCUGUGGCUCUACUGCC [G2A C3G A11U C13A A39C G40U] showed a self-cleavage of 0.02. With GGCAGAGCUCAACACAACGUGGUAAAGUGGGUGUGGCUAGACUGCC [G17A C23U C31G] the self-cleavage was 0.08. GGCAGAGCUCUACACAGCAUGUCAAAGUGGCGGUGGCUAGACUGGC [A11U G19A G22U U32G C45G] gave a self-cleavage of 0.02. Variant GGCAGAGCUCAACACAGUGUGGCAAAGUGGCUGUUGCCACACUGCC [C18U G35U U38C G40C] has a self-cleavage of 0.01. Work on GGCAGAGCUCAACACAGGGGGGCAAAGGGGCUGUGGCUAGGCAGCA [C18G U20G U28G A41G U43A C46A] yielded a self-cleavage of 0.01. With GGCAGAGCUCAACACAGCGUGGCAAAGUGGCUGUGGCUGGCCUGCG [A39G A41C C46G] the self-cleavage was 0. For GGCAGAGCUCAACAUAGCGUGGCAAAGUGGGUAGGACUAGACUACC [C15U C31G G33A U34G G36A G44A], the self-cleavage was 0.06. GGAAGAGCUCAACCCAGCGUGGUAAAGUGGCUGUGGCUAGACUGCC [C3A A14C C23U] gave a self-cleavage of 0.02. GGCAGAGCUCAACACAGCGUAGUAUAGUGGCCGUGGCUAGACUGCC [G21A C23U A25U U32C] showed a self-cleavage of 0.92.
